Some of the results follow. At the low end of the ranking the order means little.

For this assay, the target named is SIX1 homeodomain (reference allele) (UniProt Q15475). In words: universal protein binding microarray. As to conditions: Universal all-10-mer PBM (8x60K, AMADID 030236), 300 nM GST-tagged protein, Alexa Fluor 488 anti-GST; buffer, salt, pH and temperature not stated; high values mean tight binding; most listed sequences are background and not binding sites; double strand, one strand shown.
As for GGAGACCC, the binding signal is 0.0946 E-score.
Regarding ACCTTGAA, the binding signal is -0.172 E-score.
In the case of ATAAACCA it was -0.136 E-score; in that of CTACACAG, -0.132 E-score.
On to AGGTCAAA, for which the binding signal is -0.337 E-score.
Regarding AGGGTTCA, the binding signal was -0.00559 E-score.
In the case of AATACTGT, the binding signal was 0.183 E-score.
With CTGACCAG the figure was -0.103 E-score; with ATAATGCC, 0.0969 E-score.
ACCGGTAA: the binding signal is 0.0661 E-score.
TATGCAAA: the binding signal was 0.0318 E-score.
On to CCGGGAAC, for which the binding signal worked out at 0.0419 E-score.
With GATATTGA the figure was 0.287 E-score; with AAGCCCTG, -0.113 E-score.
For the sequence CCTCACAC, the binding signal is -0.182 E-score.
GTGCCTGA: the binding signal is -0.153 E-score.
As for ATACCAAT, the binding signal is 0.348 E-score.
For the sequence ACCAACCG, the binding signal was -0.000715 E-score.
As for CATGAGCA, the binding signal was -0.127 E-score.
Turning to CCTCCCAC, the binding signal worked out at 0.00268 E-score.
In the case of AATAGTGG it was -0.112 E-score.
In the case of GTGGTAGA, the binding signal came to 0.0943 E-score.
In the case of AATCATAG, the binding signal was -0.107 E-score.
Regarding ACGAATTA, the binding signal is -0.00856 E-score.
Turning to AAGTCGAA, the binding signal was -0.256 E-score.
In the case of AAATCCAG it was 0.0128 E-score; in that of CAAAGCAG, -0.0229 E-score; in that of AATTGCAC, -0.0168 E-score.
Take CGACATAA: the binding signal is -0.215 E-score.
With CAAAAGCG the figure was -0.211 E-score.
Consider CCGGGTGC, for which the binding signal came out at 0.102 E-score.
For the sequence GTACCTTA, the binding signal was -0.0988 E-score.
As for ATGTACTA, the binding signal was 0.00732 E-score.
For the sequence GTTCATGA, the binding signal was -0.0278 E-score.
As to CGCCTGAC, the binding signal is -0.101 E-score.
Turning to AAAAGTAT, the binding signal is 0.204 E-score.
As for ACATCAAA, the binding signal is -0.134 E-score.
With ATCCATGA, the binding signal was found to be 0.273 E-score.
Take ACCTCATA: the binding signal was 0.106 E-score.
On to GTGCACAA, for which the binding signal is -0.245 E-score.
Regarding AGGAAGTA, the binding signal is -0.0386 E-score.
In the case of ATTTGAGG, the binding signal is -0.199 E-score.
On to CTGGCACA, for which the binding signal is -0.263 E-score.
In the case of AGAGAGCT it was -0.143 E-score.
Turning to AAAAGCGC, the binding signal was -0.219 E-score.
Turning to AAAACTAC, the binding signal was 0.137 E-score.
For ACAATCAT, the binding signal is -0.0395 E-score.
For ACAGAGCG, the binding signal is -0.243 E-score.
In the case of CGAGACTC it was 0.092 E-score.
In the case of CCCGTCAA it was -0.266 E-score; in that of AATATTAA, 0.187 E-score; in that of CAACTCGC, -0.128 E-score.
In the case of GACCCCTC, the binding signal was determined as 0.0959 E-score.
With AGTGTGCA the figure was -0.132 E-score; with AAACTCTT, -0.322 E-score.
Regarding GTAAGCAA, the binding signal is -0.0961 E-score.
On to TCTGACCA, for which the binding signal was -0.11 E-score.
For the sequence ATGCACGC, the binding signal was 0.0639 E-score.
Turning to ATTATCCA, the binding signal was 0.176 E-score.
Take ATGCTGGA: the binding signal is 0.0334 E-score.
Consider CGCCCATA, for which the binding signal worked out at 0.136 E-score.
Consider TAGTGCCA, for which the binding signal is -0.0812 E-score.
With AGCTCTCG the figure was -0.0693 E-score.
Consider CGTAATGA, for which the binding signal turned out to be 0.0306 E-score.
With GCGGCAAC the figure was -0.191 E-score; with ACTTTCAA, -0.21 E-score.
On to GGAAACAC, for which the binding signal is -0.0804 E-score.
Take TACGTCAA: the binding signal stood at 0.0433 E-score.
With CAGTTGTA the figure was -0.105 E-score; with GTGAACAA, -0.127 E-score; with AACTTACA, -0.0133 E-score.
With ATCTCTGC the figure was 0.185 E-score; with ATAACGGG, -0.167 E-score; with CACACGTG, -0.0797 E-score.
For TGATTGAA, the binding signal is -0.0643 E-score.
With AGATAGAA, the binding signal came out at 0.00317 E-score.
In the case of GATCTTGC it was 0.229 E-score; in that of CTACTGTC, -0.153 E-score.
For the sequence GCTGTGAA, the binding signal was -0.152 E-score.
As for AGGCGATC, the binding signal is 0.271 E-score.
In the case of AGGAGGAG it was -0.0312 E-score; in that of ACGAAGGC, -0.277 E-score.
With TAACTTCA, the binding signal came to 0.048 E-score.
For ACGATTCT, the binding signal was found to be 0.0925 E-score.
Turning to GGCTACAC, the binding signal is 0.000295 E-score.
As for GCCGCTCC, the binding signal is -0.127 E-score.
On to AAAACAGC, for which the binding signal is -0.159 E-score.
As for AGGGTACG, the binding signal was determined as 0.0799 E-score.
In the case of TAGGATAA it was 0.21 E-score; in that of CGGGTTAC, 0.08 E-score.
As for GGTGGAAA, the binding signal was -0.17 E-score.
Regarding AAGAAGAT, the binding signal is 0.143 E-score.
Consider GAACCGCC, for which the binding signal is -0.0988 E-score.
As for GAAGTGCA, the binding signal was -0.275 E-score.
With GTTGGAGA, the binding signal came to 0.0797 E-score.
CGGCACTC: the binding signal was -0.172 E-score.
As for CACGGAAA, the binding signal was -0.306 E-score.
For CATTCGTC, the binding signal is -0.105 E-score.
As to AATCCATT, the binding signal was found to be 0.118 E-score.
AGACCAAG: the binding signal is -0.0978 E-score.
In the case of CTCTGGTA it was 0.096 E-score; in that of GTCACAAC, -0.167 E-score.
Consider CCTCCCTA, for which the binding signal was 0.0724 E-score.
Regarding GACAATTA, the binding signal is -0.0583 E-score.
As for ACATATAT, the binding signal was 0.252 E-score.
In the case of TAAGCCAA, the binding signal is -0.107 E-score.
With GCCGTCGC the figure was -0.284 E-score; with AGGCGGAA, -0.276 E-score.
With CATGTACG the figure was 0.118 E-score.
On to CGCACAAC, for which the binding signal is 0.015 E-score.
In the case of GCCGTCCC it was -0.243 E-score; in that of CTTTCAAA, -0.171 E-score.
With GCCCGTCA the figure was -0.121 E-score; with CTGCCCAG, -0.0635 E-score.
In the case of CGACACAC it was 0.1 E-score; in that of AACGCTCG, -0.161 E-score.
Turning to CGACCGGC, the binding signal is -0.274 E-score.
As to GGTTTCCA, the binding signal was -0.174 E-score.
With CCCAAGAC the figure was -0.0634 E-score; with ATTCGGGG, 0.17 E-score.
With CCACCACA the figure was -0.0545 E-score; with TAGCTACA, 0.15 E-score.
With AGTTGTAA the figure was -0.183 E-score; with GAATTCAA, 0.00865 E-score.
Turning to GGGCTCGA, the binding signal is -0.0193 E-score.
With CACCCTAG the figure was 0.157 E-score; with AGTATGAA, -0.0157 E-score; with CAATGGGG, 0.0706 E-score.
For CGGCCAGC, the binding signal was -0.194 E-score.
Take TACGATGA: the binding signal came out at 0.0552 E-score.
On to ATTACCCA, for which the binding signal came to 0.0354 E-score.
With AGCCGTGG the figure was -0.194 E-score.
In the case of CGTCACAG it was -0.0541 E-score.
In the case of CTTACACC, the binding signal stood at 0.203 E-score.
On to AGATTACG, for which the binding signal is 0.0717 E-score.
With AAGAGAGA the figure was -0.124 E-score; with CCAAGTAC, -0.12 E-score.
In the case of ACTCCCAA it was -0.0678 E-score.
Consider AGCTCGGC, for which the binding signal worked out at 0.00286 E-score.
AACATGTA: the binding signal came to 0.117 E-score.
In the case of AGTGACCG, the binding signal was -0.196 E-score.
In the case of CGGCCCAC, the binding signal is -0.179 E-score.
Regarding ATTACGGG, the binding signal is 0.0536 E-score.
In the case of ACCCTTTG it was 0.00558 E-score.
In the case of GACTACGA it was -0.168 E-score.
With GGGAATGA, the binding signal is -0.0264 E-score.
In the case of ACAACGAT, the binding signal amounted to 0.18 E-score.
With TAACTGCA, the binding signal is -0.178 E-score.
CCTGTAAG: the binding signal was -0.0955 E-score.
CAGGTGCA: the binding signal is -0.291 E-score.
With GAATTAAC the figure was -0.257 E-score; with CTGTGGTA, -0.175 E-score; with CCCAGGCA, -0.133 E-score.
For ATTGCTTG, the binding signal was -0.108 E-score.
With CGTGTGCA, the binding signal is -0.0416 E-score.
With GGATGCAA the figure was 0.148 E-score; with CCGCCACG, -0.0109 E-score; with ACGTATCG, 0.413 E-score.
As for CAATACGG, the binding signal turned out to be 0.178 E-score.
AGTGCACA: the binding signal was -0.0066 E-score.
On to CCATACAC, for which the binding signal came out at 0.174 E-score.
Regarding CTTCTCTC, the binding signal was -0.147 E-score.
As to CAGAACTG, the binding signal is -0.103 E-score.
For CGAAGGCA, the binding signal was -0.241 E-score.
Turning to CTTACCGC, the binding signal was -0.16 E-score.
Turning to CCACCTGG, the binding signal is -0.169 E-score.
Consider GTGCTGGA, for which the binding signal was -0.129 E-score.
On to GGTCCGGA, for which the binding signal amounted to 0.0198 E-score.
With CGCATGAC the figure was -0.131 E-score.
Turning to TCGGCAAA, the binding signal was -0.264 E-score.
With CTTTCGGC the figure was -0.198 E-score; with ATTAATTC, 0.139 E-score.

The record behind these values is paper PMC10668032.
